# Assay results as given in PubChem BioAssay AID720709 (National Center for Advancing Translational Sciences (NCATS), 2013).
# Among all 360,000 compounds or so, about 520 (0.14%) were called active. Inconclusive results, whose numbers are uncertain, are shown with a selection of clear calls. Calls follow the shape of the dose curve; as a rule, active = well fitted inhibition curve with a large enough effect; inconclusive = small, poorly fitted or top-dose-only effect; inactive = no such curve, though single readings can be large or run the other way. Potencies of inconclusive entries are left out as doubtful fits.
# Target: Rap guanine nucleotide exchange factor 3 (Homo sapiens) (UniProt O95398)
# Sequence of UniProt O95398 (O95398 whole entry, looked up): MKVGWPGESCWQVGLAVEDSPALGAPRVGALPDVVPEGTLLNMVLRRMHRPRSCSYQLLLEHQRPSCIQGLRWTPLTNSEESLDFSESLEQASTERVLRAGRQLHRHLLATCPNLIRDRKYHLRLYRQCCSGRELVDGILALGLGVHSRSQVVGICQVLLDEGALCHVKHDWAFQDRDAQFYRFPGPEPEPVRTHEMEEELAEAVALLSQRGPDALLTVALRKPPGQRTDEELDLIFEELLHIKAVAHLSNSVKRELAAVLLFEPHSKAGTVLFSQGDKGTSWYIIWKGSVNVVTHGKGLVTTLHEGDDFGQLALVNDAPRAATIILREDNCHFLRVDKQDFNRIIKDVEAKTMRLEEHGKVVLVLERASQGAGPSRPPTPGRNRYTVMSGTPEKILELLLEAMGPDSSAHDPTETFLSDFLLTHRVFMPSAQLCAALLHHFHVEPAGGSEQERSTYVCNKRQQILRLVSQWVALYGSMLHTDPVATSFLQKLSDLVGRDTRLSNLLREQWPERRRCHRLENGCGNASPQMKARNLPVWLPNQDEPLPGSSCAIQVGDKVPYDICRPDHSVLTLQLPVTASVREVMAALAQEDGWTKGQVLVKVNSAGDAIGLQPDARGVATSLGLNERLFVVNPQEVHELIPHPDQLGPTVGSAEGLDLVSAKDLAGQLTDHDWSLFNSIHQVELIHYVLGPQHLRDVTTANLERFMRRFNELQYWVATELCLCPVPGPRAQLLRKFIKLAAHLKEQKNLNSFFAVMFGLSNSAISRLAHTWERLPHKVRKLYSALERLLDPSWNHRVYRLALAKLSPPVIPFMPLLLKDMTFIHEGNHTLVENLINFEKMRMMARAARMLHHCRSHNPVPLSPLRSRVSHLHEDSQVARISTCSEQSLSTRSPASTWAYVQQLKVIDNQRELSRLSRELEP
# Test: qHTS for Antagonist of cAMP-regulated guanine nucleotide exchange factor 3 (EPAC1): primary screen; also: nearly all actives have a fitted effect of over 50% in size;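 as to activity change, negative = inhibition: plate controls were vehicle for no effect and positive control for full effect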
# Conditions: EPAC1 GEF assay, Rap1b-BODIPY-GDP exchange fluorescence; activity change, negative = inhibition: at 115 µM (top of the series)
# Potency is read from the fitted curve at half-maximal effect; tags tell the direction and shape of the fitted curve.
Compound,Potency,"activity change, negative = inhibition"
CC(=O)Nc1cccc(Oc2ncnc3scc(-c4ccc(C(C)C)cc4)c23)c1,"inconclusive [inhibitor, partial curve, poor fit]",
CC[n+]1ccccc1/C=C1\Sc2ccc(C)cc2N1C,inactive,
O=c1c2ccccc2c(-c2n[nH]c(=S)o2)nn1Cc1ccccc1,"inconclusive [inhibitor, full curve]",
CN(C)c1ccc(C(=O)OCC(=O)Nc2ccc(S(N)(=O)=O)cc2)cc1,active: 50.1 µM,
CN(CC(=O)NC(=O)NC1CCCCC1)CC(=O)Nc1ccc(OC(F)(F)F)cc1,"inconclusive [inhibitor, full curve, poor fit]",
Cc1cnc(C(=O)Nc2cc(S(=O)(=O)N3CCOCC3)ccc2N2CCN(C)CC2)cn1,"inconclusive [inhibitor, partial curve]",
CCOC(=O)N1CCN(C(=O)CN(CC)S(=O)(=O)c2cc(C)ccc2OC)CC1,"inconclusive [inhibitor, full curve]",
COC(=O)CN1C(=S)N(c2ccc(OC)cc2)C(=O)/C1=C/c1ccc(N2CCOCC2)cc1,inactive,
Cc1ncc(CO)c(/C=N/NC(=S)Nc2cccc(Cl)c2)c1O,"inconclusive [inhibitor, partial curve]",
Cc1ccccc1Nc1c(-c2cccnc2)nc2ccccn12,"inconclusive [inhibitor, full curve]",
O=C(CSc1nccc(=O)[nH]1)Nc1ccc2c(c1)OCCO2,"inconclusive [inhibitor, partial curve, poor fit]",
COc1cccc(NC(=O)CN2C(=O)C3(OCCCO3)c3ccccc32)c1,"inconclusive [inhibitor, partial curve, poor fit]",
Cc1ccc2c(c1)COc1c3ccc(C(=O)N[C@@H](CO)C(C)C)cc3nn1-2,inactive,
O=c1c2cccnc2[nH]c(=S)n1CCCN1CCN(c2ccccc2F)CC1,inactive,
COc1cc2c(cc1OC)C(c1cc(Br)c(OC)c(OC)c1)CC(=O)N2 (stereo not drawn),"inconclusive [inhibitor, full curve, poor fit]",
COc1ccccc1CNCc1ccc(C)cc1,inactive,
CCn1c(C)nc2cc(C(=O)NNS(=O)(=O)c3ccccc3F)ccc21,inactive,
CCC(=O)Nc1cccc(-c2cc3ccccc3oc2=O)c1,inactive,
COc1ccc(NC(=O)N2CCCC2C(=O)NCc2cccs2)cc1 (stereo not drawn),inactive,
CCOC(=O)c1nnn(CC(=O)NC(=O)Nc2cccc(CC)c2)c1C(=O)OCC,"inconclusive [inhibitor, single point]",
COc1cccc(N2CCN(c3nc(-c4ccccc4C)cc(=O)[nH]3)CC2)c1,"inconclusive [inhibitor, full curve, poor fit]",
Cc1nnsc1C(=O)Nc1ccc(S(=O)(=O)N2CCCCC2)cc1,inactive,
CC(=O)N1N=C(c2ccc(Cl)cc2)CC1c1ccc([N+](=O)[O-])cc1 (stereo not drawn),"inconclusive [inhibitor, single point]",

Compound,Potency,"activity change, negative = inhibition"
CCc1nc(N2CCN(C(=O)CCl)CC2)c2c3c(sc2n1)CC(C)CC3 (stereo not drawn),"inconclusive [inhibitor, partial curve]",
CCOc1ccc(NC(=O)CSc2nc3[nH]ncc3c(=O)n2-c2ccccc2OC)cc1,"inconclusive [inhibitor, full curve]",
c1coc(CSSCc2ccco2)c1,"inconclusive [inhibitor, full curve, poor fit]",
CCCCn1c(NC(=O)c2ccc(Br)o2)c(S(=O)(=O)c2ccccc2)c2nc3ccccc3nc21,inactive,
CCn1c(=S)sc2c(=O)n(CC(=O)Nc3ccccc3)c(C)nc21,inactive,
O=C(Nc1cc(S(=O)(=O)N2CCOCC2)ccc1N1CCOCC1)c1cn2ccccc2n1,"inconclusive [inhibitor, partial curve]",
CCCCC(=O)Oc1c(S(=O)(=O)c2ccccc2)c(C)nn1C(C)(C)C,"inconclusive [inhibitor, partial curve]",
O=c1c2cc(N3CCOCC3)ccc2[nH]c(=S)n1Cc1ccco1,"inconclusive [inhibitor, single point]",
COc1cc(C(=O)NCCc2ccc(F)cc2)ccc1OCC(=O)N1CCOCC1,"inconclusive [inhibitor, full curve, poor fit]",
COc1cccc(-c2nc(CS(=O)(=O)CC(=O)Nc3cc(C)ccc3C)c(C)o2)c1,inactive,
COc1ccc(S(=O)(=O)N2CCN(Cc3ccc4c(c3)OCO4)CC2)cc1F,"inconclusive [inhibitor, partial curve]",
Cn1c(N)c(C(=O)COC(=O)c2cc(-c3ccco3)nc3ccccc23)c(=O)n(C)c1=O,"inconclusive [inhibitor, partial curve]",
S=C(NNC(=S)NC1CC2C=CC1C2)NC1CC2C=CC1C2 (stereo not drawn),"inconclusive [inhibitor, partial curve]",
COc1ccc2[nH]c(=O)c(CNc3ccccc3OC)cc2c1,"inconclusive [inhibitor, single point]",
O=C(/C=C/C(=O)N1CCc2ccccc2C1)N1CCc2ccccc2C1,inactive,
CCC(C)n1c(=O)c(C(=O)Nc2ccccc2S(N)(=O)=O)c(O)c2ccccc21 (stereo not drawn),"inconclusive [inhibitor, single point]",
O=C(c1ccc(C(=O)N2CCCc3ccccc32)s1)N1CCCc2ccccc21,inactive,
O=C1S/C(=C/c2ccc(N3CCOCC3)o2)C(=O)N1Cc1c(F)cccc1Cl,inactive,
COC(=O)c1ccc(=O)c2nc3/c(=C/O)c(O)cc(=O)c3[nH]c12,"inconclusive [inhibitor, partial curve]",
O=C1NC(=O)/C(=C/c2ccc(-c3cccc([N+](=O)[O-])c3)o2)S1,,inconclusive: -18.5% [inhibitor]
COc1ccc(Cl)cc1-c1nc(SCC(=O)NC(C)(C)C)n[nH]1,inactive,
COCCCn1cc(CN2CC(N3CCN(Cc4cccc(C)c4)CC3)CS2(=O)=O)nn1 (stereo not drawn),inactive,
O=C(NC(=S)Nc1cc(Cl)ccc1N1CCOCC1)c1ccc(-c2cccc(Cl)c2)o1,inactive,

Compound,Potency,"activity change, negative = inhibition"
CCC1CCCCN1C(=O)c1ccc(OC)c(OC2CCN(C(C)C)CC2)c1 (stereo not drawn),"inconclusive [inhibitor, partial curve]",
COc1ccccc1Cn1nnc2c(=O)[nH]c(C3CCN(C(=O)c4ccccc4Cl)CC3)nc21,"inconclusive [inhibitor, partial curve]",
O=C(CNC(=O)c1ccccc1F)N/N=C/c1cccs1,"inconclusive [inhibitor, partial curve]",
NS(=O)(=O)c1ccc(CNS(=O)(=O)c2ccc3c(c2)OCCO3)cc1,"inconclusive [inhibitor, full curve]",
Cc1cc(C(=O)CCl)c(C)n1CC1COc2ccccc2O1 (stereo not drawn),"inconclusive [inhibitor, partial curve]",
CNc1ccc(C(=O)c2ccccc2C(=O)O)cc1[N+](=O)[O-],,inconclusive: -19.3% [inhibitor]
Cc1cc2c(cc1C)NC(c1nc3ccccc3[nH]1)C1=C(CC(C)(C)CC1=O)N2 (stereo not drawn),"inconclusive [inhibitor, partial curve]",
COc1ccc(CN(C(=O)c2oc3cc(C)c(C)cc3c2C)C2CCS(=O)(=O)C2)cc1OC (stereo not drawn),"inconclusive [inhibitor, single point]",
O=C1[C@H](Cc2ccccc2)NCCCC[C@H](c2ccco2)N1Cc1ccccc1,"inconclusive [inhibitor, full curve, poor fit]",
COc1ccc(/C=C(/C#N)C(=O)Nc2cccnc2)cc1OC,"inconclusive [inhibitor, single point]",
Cc1cccc(S(=O)(=O)Nc2nc3ccccc3nc2NCC2CCCO2)c1 (stereo not drawn),"inconclusive [inhibitor, single point]",
CC(C)N(C(=O)[C@H]1CC(CC(=O)NC(C)(C)C)C(=O)N2CCc3c([nH]c4ccccc34)[C@]12C)C(C)C (stereo partly drawn),inactive,
C/C(=N\N)c1c(-c2ccccc2)c2cc(Br)ccc2[nH]c1=O,"inconclusive [inhibitor, full curve, poor fit]",
O=C1NC[C@@H](CCCCN2C[C@H](Cc3ccc(O)cc3)N(CCc3ccc(O)cc3)C(=O)C2=O)N(CC2CCCCC2)C1=O,inactive,
O=C(N/N=C/c1ccc(N2CCOCC2)o1)c1cccc(C(F)(F)F)c1,inactive,
CCOC(=O)C1=C(C)N=c2s/c(=C/c3ccc(OCC(=O)O)c(OC)c3)c(=O)n2C1c1ccc(Cl)cc1 (stereo not drawn),"inconclusive [inhibitor, partial curve, poor fit]",
COC(=O)c1[nH]c2ccc(Br)cc2c1NC(=O)CN1CCCc2ccccc21,inactive,
O=C(O)CCn1cc(/C=C\C(=O)c2ccc(Cl)cc2)c(-c2cccc(Br)c2)n1,"inconclusive [inhibitor, single point]",
CCOc1ccc2nc(SCC(=O)c3ccc(O)cc3O)sc2c1,"inconclusive [inhibitor, single point]",
Cc1nc2sc3c(O)cc(=O)[nH]c3c2c(C)c1C,inactive,
CCOc1ccc(Oc2ccc(S(=O)(=O)N3CCOCC3)cc2NC(=O)CCNC(C)=O)cc1,"inconclusive [inhibitor, single point]",
CCCC[C@H]1COCCS(=O)(=O)N1Cc1ccc(Br)cc1,"inconclusive [inhibitor, single point]",
